Results: the supplement of paper PMC9938546
Counter-ions that a name gives are not always drawn. This is one part of the list. Repeats are few or missing, and single values can be far off.

What follows are compounds tested on HCT116-GFP (assay: HCT116-GFP viability (GFP intensity) relative to untreated control, monoculture; higher = less cancer cell killing). Settings: culture: HCT116-GFP monoculture; 10 µM; 72 h.
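Further: viability estimated indirectly by image-based GFP quantification with live-cell imaging of the constitutively GFP-expressing human colorectal cancer line, no immune cells added.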

**Q.** How did the HCT116-GFP viability turn out when `Nc1nc(N)c2nc(-c3ccccc3)c(N)nc2n1` [Triamterene] was run?
**A.** 72%

**Q.** `C=C1C(=O)O[C@H]2[C@H]1CC/C(C)=C/CC[C@@]1(C)O[C@@H]21` [Parthenolide] was tested. Which HCT116-GFP viability did it give?
**A.** 1.84%

**Q.** Which HCT116-GFP viability does the source give for `CCCCOc1ccc(C(=O)CCN2CCCCC2)cc1` [Dyclonine hydrochloride] here?
**A.** 85%

**Q.** Which HCT116-GFP viability does the source give for `CC(C)(C)CC(C)(C)c1ccc(OCCOCC[N+](C)(C)Cc2ccccc2)cc1` [Benzethonium chloride] here?
**A.** 14.7%

**Q.** With `Cn1nnc2c(C(N)=O)ncn2c1=O` [Temozolomide] as the compound, how does the HCT116-GFP viability read?
**A.** 99.8%

**Q.** With `OC(CCN1CCCC1)(c1ccccc1)C1CCCCC1` (stereo unspecified) [Procyclidine hydrochloride] as the compound, how does the HCT116-GFP viability read?
**A.** 110%

**Q.** How did the HCT116-GFP viability turn out when `CC(C)NCC(O)COc1cccc2[nH]ccc12` (stereo unspecified) [Pindolol] was run?
**A.** 110%

**Q.** For `CC(CN(C)C)CN1c2ccccc2CCc2ccccc21` (stereo unspecified) [Trimipramine maleate salt], which HCT116-GFP viability is on record?
**A.** 88.3%

**Q.** How did the HCT116-GFP viability turn out when `CC(C)C(=O)c1c(C(C)C)nn2ccccc12` [Ibudilast] was run?
**A.** 114%

**Q.** `NCCc1ccc(O)c(O)c1` [Dopamine hydrochloride] was tested. Which HCT116-GFP viability did it give?
**A.** 70.3%

**Q.** `CC1(C)O[C@@H]2C[C@H]3[C@@H]4C[C@H](F)C5=CC(=O)C=C[C@]5(C)[C@H]4[C@@H](O)C[C@]3(C)[C@]2(C(=O)CO)O1` [Flunisolide] was tested. Which HCT116-GFP viability did it give?
**A.** 127%

**Q.** `CN(Cc1cc(Br)cc(Br)c1N)C1CCCCC1` [Bromhexine hydrochloride] was tested. Which HCT116-GFP viability did it give?
**A.** 89.6%

**Q.** `C[C@H](CS)C(=O)N1CCC[C@H]1C(=O)O` [Captopril] was tested. Which HCT116-GFP viability did it give?
**A.** 100%

**Q.** Which HCT116-GFP viability does the source give for `Cc1c(Nc2ncccc2C(=O)O)cccc1C(F)(F)F` [Flunixin meglumine] here?
**A.** 97%

**Q.** For `CC[C@H](c1ccc(O)cc1)[C@@H](CC)c1ccc(O)cc1` [Hexestrol], which HCT116-GFP viability is on record?
**A.** 108%

**Q.** For `CCc1nn(CCCN2CCN(c3cccc(Cl)c3)CC2)c(=O)n1CCOc1ccccc1` [Nefazodone hydrochloride], which HCT116-GFP viability is on record?
**A.** 85.6%

**Q.** How did the HCT116-GFP viability turn out when `CCCNC(C)(C)COC(=O)c1ccccc1` [Meprylcaine hydrochloride] was run?
**A.** 94%

**Q.** For `CCC1(C)CC(=O)NC1=O` (stereo unspecified) [Ethosuximide], which HCT116-GFP viability is on record?
**A.** 101%

**Q.** `NC1CCN(c2c(F)cc3c(=O)c(C(=O)O)cn(C4CC4)c3c2Cl)C1` (stereo unspecified) [Clinafloxacin] was tested. Which HCT116-GFP viability did it give?
**A.** 102%

**Q.** For `C[N+](C)(CCOc1ccccc1)Cc1ccccc1.O=C([O-])c1cc2ccccc2cc1O` [Bephenium hydroxynaphthoate], which HCT116-GFP viability is on record?
**A.** 89.1%

**Q.** How did the HCT116-GFP viability turn out when `CC(NCCc1ccc(O)cc1)C(O)c1ccc(O)cc1` (stereo unspecified) [Ritodrine hydrochloride] was run?
**A.** 92.9%

**Q.** For `CCCc1nn(C)c2c(=O)[nH]c(-c3cc(S(=O)(=O)N4CCN(C)CC4)ccc3OCC)nc12` [Sildenafil], which HCT116-GFP viability is on record?
**A.** 86%

**Q.** For `CCC(C)(C)C(=O)O[C@H]1C[C@@H](C)C=C2C=C[C@H](C)[C@H](CC[C@@H]3C[C@@H](O)CC(=O)O3)[C@H]21` [Simvastatin], which HCT116-GFP viability is on record?
**A.** 99.9%

**Q.** For `CC(=O)Oc1ccc(C(c2ccc(OC(C)=O)cc2)c2ccccn2)cc1` [Bisacodyl], which HCT116-GFP viability is on record?
**A.** 93%

**Q.** `O=C1Nc2ccc(Cl)cc2[C@@](C#CC2CC2)(C(F)(F)F)O1` [Efavirenz] was tested. Which HCT116-GFP viability did it give?
**A.** 93.6%

**Q.** How did the HCT116-GFP viability turn out when `Nc1ccc(C(=O)O)c(O)c1` [4-aminosalicylic acid] was run?
**A.** 112%

**Q.** How did the HCT116-GFP viability turn out when `CC[N+](C)(CC)CCC[n+]1c(-c2ccccc2)c2cc(N)ccc2c2ccc(N)cc21` [Propidium iodide] was run?
**A.** 83%

**Q.** For `O=C(O)c1ccccc1Nc1cccc(C(F)(F)F)c1` [Flufenamic acid], which HCT116-GFP viability is on record?
**A.** 104%

**Q.** For `O=C1O[C@H]([C@@H](O)CO)C(O)=C1O` [Ascorbic acid], which HCT116-GFP viability is on record?
**A.** 92.3%

**Q.** With `Clc1ccc(C(c2ccccc2Cl)C(Cl)Cl)cc1` (stereo unspecified) [Mitotane] as the compound, how does the HCT116-GFP viability read?
**A.** 101%

**Q.** How did the HCT116-GFP viability turn out when `CN(C)CCOC(=O)C(c1ccccc1)C1(O)CCCC1` (stereo unspecified) [Cyclopentolate hydrochloride] was run?
**A.** 94.3%

**Q.** Which HCT116-GFP viability does the source give for `Nc1ccc(/N=N/c2ccccc2)c(N)n1` [Phenazopyridine hydrochloride] here?
**A.** 88.5%

**Q.** With `CCC(=O)O[C@]1(C(=O)SCF)[C@H](C)C[C@H]2[C@@H]3C[C@H](F)C4=CC(=O)C=C[C@]4(C)[C@@]3(F)[C@@H](O)C[C@@]21C` [Fluticasone propionate] as the compound, how does the HCT116-GFP viability read?
**A.** 109%

**Q.** Which HCT116-GFP viability does the source give for `OCCN1CCN(CC/C=C2/c3ccccc3Sc3ccc(Cl)cc32)CC1` [Zuclopenthixol dihydrochloride] here?
**A.** 75.8%

**Q.** `Nc1nc(/C(=C/CC(=O)O)C(=O)N[C@@H]2C(=O)N3C(C(=O)O)=CCS[C@H]23)cs1` [Ceftibuten] was tested. Which HCT116-GFP viability did it give?
**A.** 95.5%

**Q.** For `CCN(CC)CCNC(=O)c1cc(Br)c(N)cc1OC` [Bromopride], which HCT116-GFP viability is on record?
**A.** 90%

**Q.** `OC(CCN1CCCCC1)(c1ccccc1)c1ccccc1` [Pridinol methanesulfonate salt] was tested. Which HCT116-GFP viability did it give?
**A.** 91.8%

**Q.** `CCCCC(=O)N(Cc1ccc(-c2ccccc2-c2nnn[nH]2)cc1)[C@H](C(=O)O)C(C)C` [Valsartan] was tested. Which HCT116-GFP viability did it give?
**A.** 84.6%

**Q.** `CC(C)NNC(=O)c1ccncc1` [Iproniazide phosphate] was tested. Which HCT116-GFP viability did it give?
**A.** 100%

**Q.** With `O=C1c2cccc(O)c2C(=O)c2c(O)cccc21` [1,8-Dihydroxyanthraquinone] as the compound, how does the HCT116-GFP viability read?
**A.** 19.2%

**Q.** How did the HCT116-GFP viability turn out when `O=C(O)CCC(=O)c1ccc(-c2ccccc2)cc1` [Fenbufen] was run?
**A.** 85.3%

**Q.** Which HCT116-GFP viability does the source give for `N[C@@H](Cc1ccc(O)c(O)c1)C(=O)O` [Levodopa] here?
**A.** 95.4%

**Q.** `CN1CCN2c3ccccc3Cc3ccccc3C2C1` (stereo unspecified) [Mianserine hydrochloride] was tested. Which HCT116-GFP viability did it give?
**A.** 55.2%

**Q.** How did the HCT116-GFP viability turn out when `O=C(NC(Cc1cc(=O)[nH]c2ccccc12)C(=O)O)c1ccc(Cl)cc1` (stereo unspecified) [Rebamipide] was run?
**A.** 110%

**Q.** With `Nc1ncn(C2OC(CO)C(O)C2O)c(=O)n1` (stereo unspecified) [Azacytidine-5] as the compound, how does the HCT116-GFP viability read?
**A.** 46.9%

**Q.** Which HCT116-GFP viability does the source give for `CC(C)(C)NC[C@H](O)COc1cccc2c1CCCC2=O` [(-) -Levobunolol hydrochloride] here?
**A.** 90.6%

**Q.** For `C[N+](C)(C)CCOC(N)=O` [Carbachol], which HCT116-GFP viability is on record?
**A.** 99.6%

**Q.** For `C[C@H](CCC(=O)O)[C@H]1CC[C@H]2[C@@H]3C(=O)C[C@@H]4CC(=O)CC[C@]4(C)[C@H]3CC(=O)[C@]12C` [Dehydrocholic acid], which HCT116-GFP viability is on record?
**A.** 97.7%

**Q.** For `CCOC(=O)C1=C(C)NC(C)=C(C(=O)OC)C1c1cccc(Cl)c1Cl` (stereo unspecified) [Felodipine], which HCT116-GFP viability is on record?
**A.** 72.6%

**Q.** `O=C1c2c(O)ccc(O)c2C(=O)c2c(NCCNCCO)ccc(NCCNCCO)c21` [Mitoxantrone dihydrochloride] was tested. Which HCT116-GFP viability did it give?
**A.** 1.9%

**Q.** `COc1cc(N)c(Cl)cc1C(=O)NC1CCN(Cc2ccccc2)CC1` [Clebopride maleate] was tested. Which HCT116-GFP viability did it give?
**A.** 107%
